From PMC6377682 (2019) come the findings set out here.

Holding throughout (test): BLI
In general terms: Biolayer interferometry detects binding as a change in optical thickness at a sensor tip.

For experiment [1], the target named is ASPP2^D1091G/E1092P (human, UniProt Q13625, in part, D1091G | E1092P).
The target of experiment [2] is ASPP2^D1093S (human, UniProt Q13625, in part, D1093S).
Experiment [3] has as its target ASPP2^E1090K/D1093S (human, UniProt Q13625, in part, E1090K | D1093S).
For experiment [4], the target named is ASPP1^K1052E/S1055D (human, UniProt Q96KQ4, in part, K1052E | S1055D).

B1: human PP1α^[…] (enzyme)
chain: not shown
On to B1, for which the Kd (commonly the equilibrium constant for the complex coming apart) in experiment [1] came out at 29.6 nM; in experiment [2], 96 nM; in experiment [3] it was 102 nM; in experiment [4], 21.8 nM.
